# Measured values published in the supplement of paper PMC8728848.
# This is one part of the list.
# B1: rAAL-I144G (Agrocybe aegerita), Q6WY08 (protein)
# chain: MQGVNIYNISAGTSVDLAAPVTTGDIVTFFSSALNLNAGAGNPNNTTLNLFAENGAYLLHIAFRLQENVIIFNSRQPDGPWLVEQRVSDVANQFAGIDGKAMVTVFDHGDKYQVVINEKTVIQYTKQISGLTLSLSYNATEETSGFSTVVEAVTYTGLALEHHHHHH
# Key:
# Assay in all cases: glycan array binding signal (z-score within array); higher = stronger binding
# Conditions in all cases: glycan notation: IUPAC condensed, linker removed; mutation: I144G
# [1] = target: Neu5Ac(a2-6)Gal(b1-4)GlcNAc(b1-3)Gal(b1-4)GlcNAc(b1-3)Gal(b1-4)GlcNAc
# Method in brief: (§1)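 Glycan array binding is given as a within-array Z-score, which can be read as non-binding when negative. The arrays, 3228 of them, came from the Consortium for Functional Glycomics database and were retained only where the protein sequence was available. Z-scores were averaged across arrays of the same protein sequence at different concentrations or buffers and across linkers.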
# [2] = target: Neu5Ac(a2-6)Gal(b1-4)GlcNAc(b1-3)Gal(b1-4)GlcNAc(b1-3)Gal(b1-4)GlcNAc(b1-2)Man(a1-3)[Neu5Ac(a2-6)Gal(b1-4)GlcNAc(b1-3)Gal(b1-4)GlcNAc(b1-3)Gal(b1-4)GlcNAc(b1-2)Man(a1-6)]GalNAc
# Method in brief: as §1
# [3] = target: Neu5Ac(a2-6)Gal(b1-4)GlcNAc(b1-3)Gal(b1-4)GlcNAc(b1-3)GalNAc
# Method in brief: as §1
# [4] = target: Neu5Ac(a2-6)Gal(b1-4)GlcNAc(b1-3)Gal(b1-4)GlcNAc(b1-3)[Neu5Ac(a2-6)Gal(b1-4)GlcNAc(b1-3)Gal(b1-4)GlcNAc(b1-6)]GalNAc
# Method in brief: as §1
# [5] = target: Neu5Ac(a2-6)Gal(b1-4)GlcNAc(b1-3)Gal(b1-4)GlcNAc(b1-6)[Gal(b1-3)]GalNAc
# Method in brief: as §1
# [6] = target: Neu5Ac(a2-6)Gal(b1-4)GlcNAc(b1-3)Gal(b1-4)[Fuc(a1-3)]GlcNAc(b1-3)Gal(b1-4)[Fuc(a1-3)]GlcNAc
# Method in brief: as §1
# [7] = target: Neu5Ac(a2-6)Gal(b1-4)GlcNAc(b1-3)GalNAc
# Method in brief: as §1
# [8] = target: Neu5Ac(a2-6)Gal(b1-4)GlcNAc(b1-3)[Neu5Ac(a2-6)Gal(b1-4)GlcNAc(b1-6)]GalNAc
# Method in brief: as §1
# [9] = target: Neu5Ac(a2-6)Gal(b1-4)GlcNAc(b1-6)GalNAc
# Method in brief: as §1
# [10] = target: Neu5Ac(a2-6)Gal(b1-4)GlcNAc(b1-6)[Gal(b1-3)GlcNAc(b1-3)]Gal(b1-4)Glc
# Method in brief: as §1
# [11] = target: Neu5Ac(a2-6)Gal(b1-4)GlcNAc(b1-6)[Gal(b1-3)]GalNAc
# Method in brief: as §1
# [12] = target: Neu5Ac(a2-6)Gal(b1-4)GlcNAc6S
# Method in brief: as §1
# Neu5Ac(a2-6)GalNAc = target: Neu5Ac(a2-6)GalNAc
# Method in brief: as §1
# [13] = target: Neu5Ac(a2-6)GalNAc(b1-4)GlcNAc
# Method in brief: as §1
# [14] = target: Neu5Ac(a2-6)GalNAc(b1-4)GlcNAc6S
# Method in brief: as §1
# [15] = target: Neu5Ac(a2-6)GlcNAc(b1-4)GlcNAc
# Method in brief: as §1
# [16] = target: Neu5Ac(a2-6)GlcNAc(b1-4)GlcNAc(b1-4)GlcNAc
# Method in brief: as §1
# Neu5Ac(a2-8)Neu5Ac = target: Neu5Ac(a2-8)Neu5Ac
# Method in brief: as §1
# [17] = target: Neu5Ac(a2-8)Neu5Ac(a2-3)Gal(b1-3)GalNAc(b1-4)[Neu5Ac(a2-3)]Gal(b1-4)Glc
# Method in brief: as §1
# [18] = target: Neu5Ac(a2-8)Neu5Ac(a2-3)Gal(b1-3)GalNAc(b1-4)[Neu5Ac(a2-8)Neu5Ac(a2-3)]Gal(b1-4)Glc
# Method in brief: as §1
# [19] = target: Neu5Ac(a2-8)Neu5Ac(a2-3)Gal(b1-4)Glc
# Method in brief: as §1
# [20] = target: Neu5Ac(a2-8)Neu5Ac(a2-3)Gal(b1-4)GlcNAc
# Method in brief: as §1
# [21] = target: Neu5Ac(a2-8)Neu5Ac(a2-3)[Gal(b1-3)GalNAc(b1-4)]Gal(b1-4)Glc
# Method in brief: as §1
# [22] = target: Neu5Ac(a2-8)Neu5Ac(a2-3)[GalNAc(b1-4)]Gal(b1-4)Glc
# Method in brief: as §1
# [23] = target: Neu5Ac(a2-8)Neu5Ac(a2-8)Neu5Ac
# Method in brief: as §1
# [24] = target: Neu5Ac(a2-8)Neu5Ac(a2-8)Neu5Ac(a2-3)Gal(b1-4)Glc
# Method in brief: as §1
# [25] = target: Neu5Ac(a2-8)Neu5Ac(a2-8)Neu5Ac(a2-3)[Gal(b1-3)GalNAc(b1-4)]Gal(b1-4)Glc
# Method in brief: as §1
# [26] = target: Neu5Ac(a2-8)Neu5Ac(a2-8)Neu5Ac(a2-3)[GalNAc(b1-4)]Gal(b1-4)Glc
# Method in brief: as §1
# [27] = target: Neu5Ac(a2-8)Neu5Ac(a2-8)Neu5Ac(a2-8)Neu5Ac(a2-3)[GalNAc(b1-4)]Gal(b1-4)Glc
# Method in brief: as §1
# [28] = target: Neu5Ac(a2-8)Neu5Gc(a2-3)Gal(b1-4)GlcNAc
# Method in brief: as §1
# [29] = target: Neu5Ac(b2-6)Gal(b1-4)GlcNAc
# Method in brief: as §1
# Neu5Ac(b2-6)GalNAc = target: Neu5Ac(b2-6)GalNAc
# Method in brief: as §1
# [30] = target: Neu5Ac9Ac(a2-3)Gal(b1-3)GlcNAc
# Method in brief: as §1
# [31] = target: Neu5Ac9Ac(a2-3)Gal(b1-4)GlcNAc
# Method in brief: as §1
# [32] = target: Neu5Ac9Ac(a2-6)Gal(b1-4)GlcNAc
# Method in brief: as §1
# [33] = target: Neu5Gc(a2-3)Gal(b1-3)GlcNAc
# Method in brief: as §1
# [34] = target: Neu5Gc(a2-3)Gal(b1-3)[Fuc(a1-4)]GlcNAc
# Method in brief: as §1
# Neu5Gc(a2-3)Gal(b1-4)Glc = target: Neu5Gc(a2-3)Gal(b1-4)Glc
# Method in brief: as §1
# [35] = target: Neu5Gc(a2-3)Gal(b1-4)GlcNAc
# Method in brief: as §1
# [36] = target: Neu5Gc(a2-3)Gal(b1-4)GlcNAc(b1-3)Gal(b1-4)GlcNAc(b1-2)Man(a1-3)[Neu5Gc(a2-3)Gal(b1-4)GlcNAc(b1-3)Gal(b1-4)GlcNAc(b1-2)Man(a1-6)]Man(b1-4)GlcNAc(b1-4)GlcNAc
# Method in brief: as §1
# [37] = target: Neu5Gc(a2-3)Gal(b1-4)[Fuc(a1-3)]GlcNAc
# Method in brief: as §1
# [38] = target: Neu5Gc(a2-6)Gal(b1-4)GlcNAc
# Method in brief: as §1
# Neu5Gc(a2-6)GalNAc = target: Neu5Gc(a2-6)GalNAc
# Method in brief: as §1
# [39] = target: Neu5Gc(a2-8)Neu5Ac(a2-3)Gal(b1-4)GlcNAc
# Method in brief: as §1
# [40] = target: Neu5Gc(a2-8)Neu5Gc(a2-3)Gal(b1-4)GlcNAc
# Method in brief: as §1
binder,measurement,setting,value
B1,glycan array binding signal (z-score),[1],-0.095
same,glycan array binding signal (z-score),[2],0.006
same,glycan array binding signal (z-score),[3],-0.106
same,glycan array binding signal (z-score),[4],-0.095
same,glycan array binding signal (z-score),[5],-0.142
same,glycan array binding signal (z-score),[6],-0.095
same,glycan array binding signal (z-score),[7],-0.16
same,glycan array binding signal (z-score),[8],0.049
same,glycan array binding signal (z-score),[9],-0.143
same,glycan array binding signal (z-score),[10],-0.106
same,glycan array binding signal (z-score),[11],-0.097
same,glycan array binding signal (z-score),[12],0.002
same,glycan array binding signal (z-score),Neu5Ac(a2-6)GalNAc,-0.167
same,glycan array binding signal (z-score),[13],-0.194
same,glycan array binding signal (z-score),[14],-0.107
same,glycan array binding signal (z-score),[15],-0.122
same,glycan array binding signal (z-score),[16],-0.151
same,glycan array binding signal (z-score),Neu5Ac(a2-8)Neu5Ac,-0.09
same,glycan array binding signal (z-score),[17],1.99
same,glycan array binding signal (z-score),[18],-0.16
same,glycan array binding signal (z-score),[19],-0.139
same,glycan array binding signal (z-score),[20],-0.083
same,glycan array binding signal (z-score),[21],-0.16
same,glycan array binding signal (z-score),[22],-0.048
same,glycan array binding signal (z-score),[23],-0.155
same,glycan array binding signal (z-score),[24],-0.026
same,glycan array binding signal (z-score),[25],0.014
same,glycan array binding signal (z-score),[26],-0.089
same,glycan array binding signal (z-score),[27],-0.147
same,glycan array binding signal (z-score),[28],-0.114
same,glycan array binding signal (z-score),[29],-0.137
same,glycan array binding signal (z-score),Neu5Ac(b2-6)GalNAc,-0.135
same,glycan array binding signal (z-score),[30],-0.174
same,glycan array binding signal (z-score),[31],-0.107
same,glycan array binding signal (z-score),[32],-0.153
same,glycan array binding signal (z-score),[33],-0.165
same,glycan array binding signal (z-score),[34],-0.072
same,glycan array binding signal (z-score),Neu5Gc(a2-3)Gal(b1-4)Glc,-0.166
same,glycan array binding signal (z-score),[35],-0.001
same,glycan array binding signal (z-score),[36],0.998
same,glycan array binding signal (z-score),[37],-0.174
same,glycan array binding signal (z-score),[38],-0.134
same,glycan array binding signal (z-score),Neu5Gc(a2-6)GalNAc,-0.086
same,glycan array binding signal (z-score),[39],-0.169
same,glycan array binding signal (z-score),[40],-0.122
